No constants are given. Whether binding was seen depends on the method and setting. Some binding calls cover weakened binding; strength is not graded here. Where a sequence is shown, tags or fusion partners need not be part of it.
What was measured:
Experiment in all cases: two-hybrid; directed assay; yeast AH109 with pairs of pGADT7 and pGBKT7 plasmids; growth on SD-Leu/-Trp/-Ade/-His
[1] = biological target: T1, TPR1 (yeast two-hybrid fusion) (Arabidopsis thaliana) (UniProt Q0WV90)
T1 sequence: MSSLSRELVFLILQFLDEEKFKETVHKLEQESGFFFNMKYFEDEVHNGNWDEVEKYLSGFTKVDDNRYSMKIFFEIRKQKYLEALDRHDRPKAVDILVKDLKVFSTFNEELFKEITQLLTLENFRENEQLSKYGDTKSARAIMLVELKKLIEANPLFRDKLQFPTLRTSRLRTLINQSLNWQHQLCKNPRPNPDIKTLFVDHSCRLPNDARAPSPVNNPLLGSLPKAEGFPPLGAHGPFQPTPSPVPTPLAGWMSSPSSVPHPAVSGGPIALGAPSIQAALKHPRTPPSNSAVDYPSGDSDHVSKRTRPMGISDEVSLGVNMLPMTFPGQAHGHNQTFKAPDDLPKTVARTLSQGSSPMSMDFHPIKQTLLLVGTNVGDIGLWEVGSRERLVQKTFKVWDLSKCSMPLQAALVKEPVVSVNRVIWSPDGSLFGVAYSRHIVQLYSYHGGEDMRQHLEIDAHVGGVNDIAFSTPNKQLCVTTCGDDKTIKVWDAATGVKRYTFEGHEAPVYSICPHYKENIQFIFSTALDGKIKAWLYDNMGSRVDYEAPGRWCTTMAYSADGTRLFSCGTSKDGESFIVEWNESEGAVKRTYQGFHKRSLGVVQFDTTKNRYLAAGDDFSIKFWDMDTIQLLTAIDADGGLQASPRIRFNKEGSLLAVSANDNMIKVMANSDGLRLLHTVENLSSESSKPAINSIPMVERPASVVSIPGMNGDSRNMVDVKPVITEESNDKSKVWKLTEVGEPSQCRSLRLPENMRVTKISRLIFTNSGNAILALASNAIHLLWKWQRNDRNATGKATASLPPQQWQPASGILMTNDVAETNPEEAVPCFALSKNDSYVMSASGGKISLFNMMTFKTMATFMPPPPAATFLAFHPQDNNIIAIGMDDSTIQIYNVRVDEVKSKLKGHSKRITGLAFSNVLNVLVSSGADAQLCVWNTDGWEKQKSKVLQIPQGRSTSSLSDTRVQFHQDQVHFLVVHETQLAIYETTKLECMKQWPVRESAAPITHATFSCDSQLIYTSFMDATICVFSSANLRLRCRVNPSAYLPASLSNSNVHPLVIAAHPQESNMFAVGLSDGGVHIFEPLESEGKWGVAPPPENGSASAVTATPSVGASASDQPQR

[2] = biological target: T2, MYB75 (pGBKT7 fusion, yeast two-hybrid) (Arabidopsis thaliana) (UniProt Q9FE25)
T2 sequence: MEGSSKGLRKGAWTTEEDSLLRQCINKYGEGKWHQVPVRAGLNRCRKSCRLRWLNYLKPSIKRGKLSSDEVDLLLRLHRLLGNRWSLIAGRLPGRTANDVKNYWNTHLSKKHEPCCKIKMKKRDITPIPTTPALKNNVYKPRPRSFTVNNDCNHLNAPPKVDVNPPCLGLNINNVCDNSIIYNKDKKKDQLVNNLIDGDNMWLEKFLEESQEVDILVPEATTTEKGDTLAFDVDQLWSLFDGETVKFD

[3] = biological target: T3, TPR3 (yeast two-hybrid fusion) (Arabidopsis thaliana) (UniProt Q84JM4)
T3 sequence: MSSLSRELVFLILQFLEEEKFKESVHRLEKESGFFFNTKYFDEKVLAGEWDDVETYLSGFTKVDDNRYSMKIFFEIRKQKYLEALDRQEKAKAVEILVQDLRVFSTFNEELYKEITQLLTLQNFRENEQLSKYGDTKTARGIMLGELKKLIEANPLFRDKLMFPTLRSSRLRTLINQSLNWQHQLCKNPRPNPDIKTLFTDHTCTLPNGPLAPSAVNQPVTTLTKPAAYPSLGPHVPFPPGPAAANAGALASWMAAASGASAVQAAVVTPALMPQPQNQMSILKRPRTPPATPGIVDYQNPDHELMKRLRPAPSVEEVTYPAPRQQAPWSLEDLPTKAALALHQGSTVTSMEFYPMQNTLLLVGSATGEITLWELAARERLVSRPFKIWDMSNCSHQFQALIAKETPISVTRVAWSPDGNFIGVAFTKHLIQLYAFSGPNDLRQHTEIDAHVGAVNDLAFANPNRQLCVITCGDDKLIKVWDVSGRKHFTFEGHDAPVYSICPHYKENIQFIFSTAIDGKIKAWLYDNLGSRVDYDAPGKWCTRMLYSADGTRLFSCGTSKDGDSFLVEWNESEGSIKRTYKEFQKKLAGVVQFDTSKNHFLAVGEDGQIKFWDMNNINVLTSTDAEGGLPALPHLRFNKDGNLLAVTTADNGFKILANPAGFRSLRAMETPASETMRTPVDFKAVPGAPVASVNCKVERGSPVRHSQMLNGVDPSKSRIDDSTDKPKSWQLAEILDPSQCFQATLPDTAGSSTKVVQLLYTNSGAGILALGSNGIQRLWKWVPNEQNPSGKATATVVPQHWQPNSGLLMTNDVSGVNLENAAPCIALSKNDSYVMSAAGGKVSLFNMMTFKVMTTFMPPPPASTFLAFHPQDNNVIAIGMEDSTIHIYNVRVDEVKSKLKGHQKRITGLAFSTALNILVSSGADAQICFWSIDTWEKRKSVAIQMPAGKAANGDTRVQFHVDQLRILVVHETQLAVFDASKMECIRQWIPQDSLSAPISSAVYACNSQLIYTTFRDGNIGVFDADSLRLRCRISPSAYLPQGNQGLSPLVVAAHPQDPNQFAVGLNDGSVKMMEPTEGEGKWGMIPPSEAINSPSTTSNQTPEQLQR

- binding [1]: no binding
- binding [2]: binds
- binding [3]: binds
B1: HAT1 (pGADT7 fusion, yeast two-hybrid) (protein, UniProt P46600 1-282)
chain: MMMGKEDLGLSLSLGFAQNHPLQLNLKPTSSPMSNLQMFPWNQTLVSSSDQQKQQFLRKIDVNSLPTTVDLEEETGVSSPNSTISSTVSGKRRSTEREGTSGGGCGDDLDITLDRSSSRGTSDEEEDYGGETCRKKLRLSKDQSAVLEDTFKEHNTLNPKQKLALAKKLGLTARQVEVWFQNRRARTKLKQTEVDCEYLKRCVEKLTEENRRLEKEAAELRALKLSPRLYGQMSPPTTLLMCPSCERVAGPSSSNHNQRSVSLSPWLQMAHGSTFDVMRPRS

Source: article PMC6443190, “Regulation of anthocyanin accumulation via MYB75/HAT1/TPL-mediated transcriptional repression” (PLoS Genetics, 2019)
